Source: PubChem BioAssay AID1346428 (National Center for Advancing Translational Sciences (NCATS), 2018)
In all, about 48,000 compounds went through this assay and about 1,200 (2.5%) were called active. Another 2% or so got no clear call; they are omitted.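 The calls were made as follows: active = activation of at least 60% and not above a set upper limit (about 1 call in 100 departs from these limits); inconclusive = activation of 40% to 60%, or above that upper limit; inactive = activation under 40%.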 This is one part of the list.

Target: Probable G-protein coupled receptor 32 (Homo sapiens) (UniProt O75388)
Test: qHTS for Agonists of Human Resolvin D1 Receptor DRV1; also: 0% is about no effect
Settings: CHO-K1 GPR32 beta-arrestin PathHunter luminescence, 90 min; at 76.9 µM; hits give high values; zero percent set by DMSO-only wells
In short: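 Readings come from a cell-based beta-arrestin complementation format: CHO-K1 GPR32 stable cells (2,500/well) treated 90 min with compounds, then beta-Gal substrate added for 1 h before chemiluminescence imaging.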

Sequence of UniProt O75388 (O75388 whole entry, looked up): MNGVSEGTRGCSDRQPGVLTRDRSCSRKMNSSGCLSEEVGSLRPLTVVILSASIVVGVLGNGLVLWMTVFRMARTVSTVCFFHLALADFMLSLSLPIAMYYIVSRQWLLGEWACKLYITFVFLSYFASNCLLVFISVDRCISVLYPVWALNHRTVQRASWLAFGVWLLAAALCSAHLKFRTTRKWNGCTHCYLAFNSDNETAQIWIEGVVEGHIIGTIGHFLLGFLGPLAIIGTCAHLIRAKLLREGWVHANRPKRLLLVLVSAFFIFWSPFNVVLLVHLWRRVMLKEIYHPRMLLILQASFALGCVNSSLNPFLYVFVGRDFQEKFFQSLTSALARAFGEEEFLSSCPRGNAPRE

activation, inactive:
CC(=O)NCCNc1nc2c(-c3ccc(C)cc3)nnn2c2ccccc12 -4.31%
CCOC(=O)CSc1nc2c(sc3ccccc32)c(=O)n1Cc1ccc(C)cc1 7.24%
CCc1sc(Nc2ccc(C)cc2Br)nc1-c1cc2cccc(OC)c2oc1=O -10.8%
CNC(=O)C1CCN(Cc2cc3ccccc3n2Cc2ccccc2C)CC1 -15.3%
CCCN(CCC)C(=O)Cn1c(=O)n(-c2ccc(C)cc2)c(=O)c2ccc(C(=O)NCc3ccccc3Cl)cc21 -17.9%
Cc1ccc(-c2cn3c(n2)sc2cc(C(=O)NCc4cccs4)ccc23)cc1 -18.9%
O=C(CCc1nnc2n(Cc3ccccc3Cl)c(=O)c3ccccc3n12)Nc1ccc(F)c(F)c1 1.56%
Cc1ccc(-n2nc(CO)c(C(=O)NCC(c3ccccc3)c3ccccc3)n2)cc1 -6.17%
O=C(NCc1cccc(Br)c1)C1CCN(C(=O)c2sccc2-n2cccc2)CC1 -18.9%
CCOCCCNC(=O)CCC(=O)NNc1nc2ccccc2c2nc(-c3ccccc3)nn12 -21.3%
Cc1oc(-c2ccccc2)nc1CSc1nnc(C)n2c1cc1sccc12 -21.7%
CCCCNC(=O)Cn1c(=O)cc(C)c2c(C)nn(-c3ccc(CC)cc3)c21 3.22%
CCC1CN(C(=O)N2CCC(C(=O)NCCc3ccc(C)cc3)CC2)c2ccccc2O1 (centres undefined) -12.4%
COc1cc(Cl)c(C)cc1Nc1nc2ccccc2nc1NS(=O)(=O)c1ccccc1 26.2%
COc1ccccc1N1CCN(C(=O)c2cnn(-c3ccc(C)c(C)c3)c2C2CCN(C(=O)OC(C)(C)C)CC2)CC1 -13.7%
Cc1ccc(N2CCN(C(=O)NCc3noc4ccccc34)CC2C)cc1 (centres undefined) -18.8%
Cc1cccc(C(=O)Nc2ccc(-c3nc4cc(C(C)C)ccc4o3)cc2)c1 19.3%
COc1ccc(S(=O)(=O)n2nc(C)c(S(=O)(=O)N3CCCCCC3)c2C)cc1OC 4.63%
CCOC(=O)c1ccc(NC(=O)C2CCN(C(=O)N3CC(C)Oc4ccc(C)cc43)CC2)cc1 (centres undefined) -6.29%
CCOC(=O)c1c(C)oc2ncnc(NCCCN3CCN(c4cc(C)ccc4C)CC3)c12 -3.7%
COc1ccc(-c2c3c(nc4sc(C(=O)Nc5ccc(F)cc5)c(N)c24)CC(C)(C)CC3=O)cc1 6.81%
CCCOc1ccc(C(=O)N(Cc2cccs2)c2ccc(C)cc2)cc1 17.4%
COc1ccc(Cl)cc1S(=O)(=O)N1CCN(Cc2cccc(F)c2)CC1 16%
Cc1ccccc1-c1nc(C(N)=O)c2c(n1)n(-c1ccc3c(c1)OCO3)c(=O)n2C -3.19%
Nc1ccncc1N -2.51%
CC(=O)c1cccc(NC(=O)CSc2nnc3ccc(-c4ccc(C)cc4)nn23)c1 -5.87%
O=S(=O)(NCCc1csc2nc(-c3ccc(Cl)cc3)nn12)c1ccc(Oc2ccccc2)cc1 25.9%
Cc1cc2nc(-c3ccc(Cl)cc3)cc(C(F)(F)F)n2n1 -2.71%
O=C(NCc1ccco1)C1CCN(C(=O)N2CCOc3ccc(Cl)cc32)CC1 -2.03%
CN(C)S(=O)(=O)c1ccc2c(c1)N(CC(=O)NCc1cccc(Br)c1)C(=O)CS2 0%
COc1ccccc1-c1nnc2n(CCc3ccccc3)c(=O)c3ccccc3n12 -0.614%
O=C1CC(c2nnc(Cc3ccc(Cl)cc3)o2)CN1c1ccccc1 (centres undefined) -4.81%
CCn1c(=N)c(C(=O)NC2CCCCC2)cc2c(=O)n3cccc(C)c3nc21 -1.55%
O=c1cc2nc(-c3cccs3)nc(SCCOc3ccc(Cl)cc3)n2[nH]1 -0.85%
Cc1ccc(-c2nnc(NC(=O)c3ccc4c(c3)OCCO4)o2)c(C)c1 -5.75%
Cc1cc2c(cc1S(=O)(=O)CCC(=O)NC1CCC(C)CC1)OCC(=O)N2 (centres undefined) -10%
Cc1ccc(C)c(Cn2c(=O)n(Cc3ccc(C(=O)NC4CCN(Cc5ccccc5)CC4)cc3)c(=O)c3ccccc32)c1 -9.01%
CC(CCc1ccccc1)NC(=O)CSc1n[nH]c(-c2ccccc2Cl)n1 (centres undefined) -0.947%
O=C(O)C(=O)Nc1cccc(-c2nn[nH]n2)c1 -38.8%
COc1cccc(N2CC(NC(=O)c3cccs3)CC2=O)c1 (centres undefined) -10.8%
Cc1cc(C)c(NC(=O)C(C)n2nc(C)c3sc4ccccc4c3c2=O)c(C)c1 (centres undefined) -17.3%
COc1cccc(CNC(=O)CCc2c(C)nn(-c3ccc(N4CCCC4)nn3)c2C)c1 -9.68%
Cc1cc(Cl)ccc1NC(=O)C1CCCN(c2nnc(C)c3c(C)n(-c4ccccc4)nc23)C1 (centres undefined) 5.05%
O=S(=O)(NCC(c1ccco1)S(=O)(=O)c1cccs1)c1ccccc1 (centres undefined) -20.7%
Cc1ccc(OC(C)C(=O)N2CCN(CCc3ccccn3)CC2)cc1C (centres undefined) -3.79%
Cc1cc(F)ccc1NC(=O)C1CCCN(C(=O)c2cnn(-c3ccccc3)c2-n2cccc2)C1 (centres undefined) -37.6%
COc1ccc(OC(=O)c2cn(-c3cccc(OC)c3)c(=O)c3ccccc23)cc1 -14.8%
Cc1cccc(OCC(=O)Nc2ccc3nc(SCc4ccccc4)sc3c2)c1 -5.65%
Cc1nc2ccccc2n1CCc1nc2c3ccccc3nc(SCc3ccccc3F)n2n1 -4.43%
CCCc1nnc(NC(=O)CSc2nnc3c4ccccc4n(CC)c3n2)s1 1.94%
CCc1ccc(CNC(=O)c2ccc(Cn3c(=O)c4cccn4c4cccnc43)cc2)cc1 -8.09%
COCCn1c(C)cc(O)c(C(c2cccc(F)c2)N2CCN(c3ccccc3)CC2)c1=O (centres undefined) -13.5%
CCc1cccc(C)c1NC(=O)c1cc(CN2CCCC2)on1 -6.14%
CC(C)NC(=O)C1CCCN(S(=O)(=O)c2ccc3c(ccn3C)c2)C1 (centres undefined) -16.8%
Cc1ccc(OCCCC(=O)Nc2sc3c(c2C(N)=O)CCC(C)C3)cc1 (centres undefined) 12.4%
CCOc1ccc(C(=O)N2CC(=O)Nc3ccc(F)cc3C2c2ccc(F)cc2)cc1 (centres undefined) -13.2%
COc1ccc(N(CC(=O)N2CCN(c3cccc(Cl)c3)CC2)S(=O)(=O)c2c(C)noc2C)cc1 -14.9%
COc1ccc(-c2oc3ncn4nc(COc5ccc(Cl)cc5)nc4c3c2-c2ccc(OC)cc2)cc1 -10.7%
CCc1nnc2c(Nc3cc(OC)c(Cl)cc3OC)nc3ccccc3n12 -3.96%
COc1cc(C(=O)N2CCCCCCC2)cc(OC)c1OC -4.03%
O=C(Nc1ccc2oc(-c3cccc4c(Br)cccc34)nc2c1)c1cccc(Cl)c1 -6.08%
CCOC(=O)N1CCc2c(sc3c2c(=O)n(CCc2ccccc2)c(=O)n3CC(=O)Nc2ccccc2C)C1 -2.81%
COc1ccc(S(=O)(=O)N(CCc2ccccc2)CC(=O)Nc2cc(Cl)ccc2C)cc1 -3.26%
CCCSc1nnc(NC(=O)c2cc(=O)c3ccccc3o2)s1 3.82%
O=C(c1cccc(Cl)c1)N(Cc1cccc(F)c1)C1CCS(=O)(=O)C1 (centres undefined) -5.81%
NC(=O)c1c(NC(=O)CS(=O)(=O)c2ccc(Cl)cc2)sc2c1CCCC2 -1.81%
C=CCN1CCc2c(cc(O)c(O)c2Cl)C(c2ccccc2)C1 (centres undefined) -4.1%
CCCN1CCN(CCCNC(=O)c2cc3c(s2)-c2c(C)cccc2OC3)CC1 -6%
COC(=O)c1cc2sccc2n1Cc1c(C)cc(C)cc1C -4.24%
COc1ccc(NC(=O)C2CCCN(S(=O)(=O)c3ccc4[nH]c(=O)ccc4c3)C2)cc1Cl (centres undefined) 8.74%
CCOc1cccc(C(=O)N(Cc2ccc(C(C)C)cc2)C2CCS(=O)(=O)C2)c1 (centres undefined) -19.1%
Cc1ccc(C)c(OCCCC(C)(C)C(=O)O)c1 2.23%
COc1ccccc1C(=O)Nc1ccccc1OCc1cc(=O)n2cc(C)sc2n1 6.6%
Cc1ccc(NC(=O)C2CCN(C(=O)c3sc4nc[nH]c(=O)c4c3C)CC2)cc1F -9.89%
Cc1ccc(-c2nn(CCC(=O)Nc3ccc(OC(F)(F)F)cc3)c(=O)c3ccccc23)cc1 -2.23%
Cc1ccccc1NC(=O)c1c(C)oc2ccc(O)c(CN(C)Cc3ccccc3)c12 -18.3%
Cc1ccc(-c2noc(-c3ccccc3OCC(=O)Nc3ccccc3[N+](=O)[O-])n2)cc1 4.93%
CC(C)Oc1ccc(C(=O)NCCc2csc(-c3cccc(F)c3)n2)cc1 27.5%
CCN1C(=O)C(Cc2nc3ccccc3c(=O)n2-c2cccc(C)c2)c2ccccc21 (centres undefined) -17.7%
CC1=C(C(=O)O)N2C(=O)[C@@H](NC(=O)C(N)C3=CCC=CC3)[C@H]2SC1 (some centres undefined) -9.06%
COc1cccc(NC(=O)Cn2c(=O)n(-c3ccc(C)cc3)c(=O)c3ccccc32)c1 -1.41%
CCCC(=O)N1c2nc(-c3ccco3)nn2C2(CCCCC2)[C@@H]2CCCC[C@@H]21 -30.6%
O=C(Nc1ncc(Cc2ccc(F)cc2)s1)c1ccc2c(c1)CC(c1ccccc1)OC2=O (centres undefined) 17.3%
CCCCCn1c(CCCNC(=O)c2ccccc2)nc2ccccc21 47.3%
